Experiments:
[1] = target: T1, biotinylated murine 4-1BB Fc(kih) (murine, UniProt P20334 24-187, biotinylated); experiment: SPR (Biacore T200, 25 C): biotinylated murine 4-1BB Fc(kih) on SA chip, construct at 200 nM as first analyte, FAP at 500 nM as second analyte
T1 construct: also called immobilized murine 4-1BB
T1 sequence: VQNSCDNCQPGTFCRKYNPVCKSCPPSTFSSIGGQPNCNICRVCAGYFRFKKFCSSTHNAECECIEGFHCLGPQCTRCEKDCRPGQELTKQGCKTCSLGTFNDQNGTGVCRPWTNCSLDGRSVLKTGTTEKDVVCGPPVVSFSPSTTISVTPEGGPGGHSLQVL
Procedure: (§1) The capacity of binding simultaneously murine 4-1BB Fc(kih) and human or murine FAP was assessed by surface plasmon resonance (SPR) in the manner as described in WO 2016/075278 A1. All SPR experiments were performed on a Biacore T200 at 25° C. with HBS-EP as running buffer (0.01 M HEPES pH 7.4, 0.15 M NaCl, 3 mM EDTA, 0.005% Surfactant P20, Biacore, Freiburg/Germany). Biotinylated murine 4-1BB Fc(kih) was directly coupled to a flow cell of a streptavidin (SA) sensor chip. Immobilization levels up to 600 resonance units (RU) were used.
(§2) The FAP-targeted mu4-1BBL construct was passed at a concentration range of 200 nM with a flow of 30 μL/minute through the flow cells over 90 seconds and dissociation was set to zero sec. Human or murine FAP was injected as second analyte with a flow of 30 μL/minute through the flow cells over 90 seconds at a concentration of 500 nM. The dissociation was monitored for 120 sec. Bulk refractive index differences were corrected for by subtracting the response obtained in a reference flow cell, where no protein was immobilized.

human FAP = target: T2, human FAP (human, UniProt Q12884 27-760); experiment: SPR (Biacore T200, 25 C): biotinylated murine 4-1BB Fc(kih) on SA chip, construct at 200 nM as first analyte, human FAP at 500 nM as second analyte
T2 construct: also called Human (hu) FAP
Procedure: as §1, §2

murine FAP = target: T3, murine FAP (mouse, UniProt P97321 27-761); experiment: SPR (Biacore T200, 25 C): biotinylated murine 4-1BB Fc(kih) on SA chip, construct at 200 nM as first analyte, murine FAP at 500 nM as second analyte
T3 construct: also called mouse FAP

binding result [1]: binds
binding result (human FAP): binds
binding result (murine FAP): binds
B1: hybrid surrogate FAP-mu4-1BBL (Fc fusion)
heavy 1: RTEPRPALTITTSPNLGTRENNADQVTPVSHIGCPNTTQQGSPVFAKLLAKNQASLSNTTLNWHSQDGAGSSYLSQGLRYEEDKKELVVDSPGLYYVFLELKLSPTFTNTGHKVQGWVSLVLQAKPQVDDFDNLALTVELFPCSMENKLVDRSWSQLLLLKAGHRLSVGLRAYLHGAQDAYRDWELSYPNTTSFGLFLVKPDNPWEGGGGSGGGGSRTEPRPALTITTSPNLGTRENNADQVTPVSHIGCPNTTQQGSPVFAKLLAKNQASLSNTTLNWHSQDGAGSSYLSQGLRYEEDKKELVVDSPGLYYVFLELKLSPTFTNTGHKVQGWVSLVLQAKPQVDDFDNLALTVELFPCSMENKLVDRSWSQLLLLKAGHRLSVGLRAYLHGAQDAYRDWELSYPNTTSFGLFLVKPDNPWEGGGGSGGGGSRTVAAPSVFIFPPSDRKLKSGTASVVCLLNNFYPREAKVQWKVDNALQSGNSQESVTEQDSKDSTYSLSSTLTLSKADYEKHKVYACEVTHQGLSSPVTKSFNRGE[no letters for human IgG1 Fc with changes]
light 1: RTEPRPALTITTSPNLGTRENNADQVTPVSHIGCPNTTQQGSPVFAKLLAKNQASLSNTTLNWHSQDGAGSSYLSQGLRYEEDKKELVVDSPGLYYVFLELKLSPTFTNTGHKVQGWVSLVLQAKPQVDDFDNLALTVELFPCSMENKLVDRSWSQLLLLKAGHRLSVGLRAYLHGAQDAYRDWELSYPNTTSFGLFLVKPDNPWEGGGGSGGGGSASTKGPSVFPLAPSSKSTSGGTAALGCLVEDYFPEPVTVSWNSGALTSGVHTFPAVLQSSGLYSLSSVVTVPSSSLGTQTYICNVNHKPSNTKVDEKVEPKSC
heavy 2: EVQLLESGGGLVQPGGSLRLSCAASGFTFSSYAMSWVRQAPGKGLEWVSAIIGSGASTYYADSVKGRFTISRDNSKNTLYLQMNSLRAEDTAVYYCAKGWFGGFNYWGQGTLVTVSSASTKGPSVFPLAPSSKSTSGGTAALGCLVKDYFPEPVTVSWNSGALTSGVHTFPAVLQSSGLYSLSSVVTVPSSSLGTQTYICNVNHKPSNTKVDKKVEPKSCDKTHTCPPCPAPEAAGGPSVFLFPPKPKDTLMISRTPEVTCVVVDVSHEDPEVKFNWYVDGVEVHNAKTKPREEQYNSTYRVVSVLTVLHQDWLNGKEYKCKVSNKALGAPIEKTISKAKGQPREPQVCTLPPSRDELTKNQVSLSCAVKGFYPSDIAVEWESNGQPENNYKTTPPVLDSDGSFFLVSKLTVDKSRWQQGNVFSCSVMHEALHNHYTQKSLSLSPGK
light 2: EIVLTQSPGTLSLSPGERATLSCRASQSVTSSYLAWYQQKPGQAPRLLINVGSRRATGIPDRFSGSGSGTDFTLTISRLEPEDFAVYYCQQGIMLPPTFGQGTKVEIKRTVAAPSVFIFPPSDEQLKSGTASVVCLLNNFYPREAKVQWKVDNALQSGNSQESVTEQDSKDSTYSLSSTLTLSKADYEKHKVYACEVTHQGLSSPVTKSFNRGEC
notes: also called FAP-targeted mu4-1BBL construct; hybrid FAP-mu4-1BBL

Source: patent US20210095002A1 (Hoffmann-La Roche, published 2021)
